# PubChem BioAssay AID720708 (National Center for Advancing Translational Sciences (NCATS), 2013)
# Out of some 360,000 compounds screened, about 660 (0.18%) were called active. Inconclusive results, whose numbers are uncertain, are shown with a selection of clear calls. Calls come from the whole dose curve; as a rule, active = well fitted inhibition curve with a large enough effect; inconclusive = small, poorly fitted or top-dose-only effect; inactive = no such curve, though single readings can be large or run the other way. No potency is given beside an inconclusive call; the fits are too rough.
# Biological target: Rap guanine nucleotide exchange factor 4 (Homo sapiens) (UniProt Q8WZA2)
# Test: qHTS for Antagonist of cAMP-regulated guanine nucleotide exchange factor 2 (EPAC2): primary screen; note: nearly all actives have a fitted effect of over 45% in size
# Details: EPAC2 GEF exchange of Rap1B-BODIPY-GDP, fluorescence; activity, negative = inhibition: at 114 µM (top of the series) unless noted
# % is set by controls: 0 for no effect and ±100 for the full control effect; potency is the fitted concentration of half-maximal effect; tags give direction and shape of the fitted curve.
# Sequence of UniProt Q8WZA2 (Q8WZA2 whole entry, looked up): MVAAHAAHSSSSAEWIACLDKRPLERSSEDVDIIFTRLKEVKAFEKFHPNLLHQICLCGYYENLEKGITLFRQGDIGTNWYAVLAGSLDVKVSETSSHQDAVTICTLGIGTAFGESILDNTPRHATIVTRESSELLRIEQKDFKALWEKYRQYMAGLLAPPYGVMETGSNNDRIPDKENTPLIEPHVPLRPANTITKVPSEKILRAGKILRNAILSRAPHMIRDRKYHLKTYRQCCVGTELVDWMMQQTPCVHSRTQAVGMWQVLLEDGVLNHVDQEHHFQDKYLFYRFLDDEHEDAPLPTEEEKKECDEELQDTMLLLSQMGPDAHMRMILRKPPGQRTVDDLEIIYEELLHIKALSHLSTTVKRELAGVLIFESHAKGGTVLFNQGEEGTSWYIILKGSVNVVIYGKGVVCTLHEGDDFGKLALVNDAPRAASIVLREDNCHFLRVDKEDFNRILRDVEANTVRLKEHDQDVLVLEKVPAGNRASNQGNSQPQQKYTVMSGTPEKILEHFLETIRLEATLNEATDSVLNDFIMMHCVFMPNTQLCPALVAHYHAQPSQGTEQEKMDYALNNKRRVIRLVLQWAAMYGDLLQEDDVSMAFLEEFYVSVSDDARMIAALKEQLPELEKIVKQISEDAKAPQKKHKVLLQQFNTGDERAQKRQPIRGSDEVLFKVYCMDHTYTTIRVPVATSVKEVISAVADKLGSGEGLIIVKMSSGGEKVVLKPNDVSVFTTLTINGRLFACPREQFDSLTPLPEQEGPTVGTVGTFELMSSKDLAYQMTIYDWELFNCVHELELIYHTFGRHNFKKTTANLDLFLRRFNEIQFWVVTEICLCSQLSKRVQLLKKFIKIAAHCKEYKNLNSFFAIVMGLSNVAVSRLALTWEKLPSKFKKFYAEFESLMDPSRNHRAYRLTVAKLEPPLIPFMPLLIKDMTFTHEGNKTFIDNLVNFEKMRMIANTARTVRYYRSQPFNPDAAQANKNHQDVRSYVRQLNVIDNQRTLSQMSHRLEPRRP
SMILES,"activity, negative = inhibition",Potency
N#C/C(=C\c1c(Cl)cccc1Cl)c1nc2ccccc2o1,inactive: -6.62%,–
CC(C)(C)c1cc(NCc2ccccn2)n2ncc(-c3ccc(Cl)cc3)c2n1,–,"inconclusive [inhibitor, partial curve]"
Cc1ccc2oc(=O)n(CCOc3ccccc3C)c2c1,–,"inconclusive [inhibitor, partial curve]"
COc1ccc(C(C)(NC(C)=O)c2nc(-c3cc(F)cc(F)c3)cs2)cc1 (stereo not given),–,"inconclusive [inhibitor, partial curve]"
O=C(N/N=C/c1ccc(-c2ccc(Cl)c(C(=O)O)c2)o1)c1cc2c(ccc3ccccc32)o1,inactive: 17%,–
Oc1ccc(Cc2ncc(C(F)(F)F)cc2Cl)cc1,–,"inconclusive [inhibitor, partial curve, poor fit]"
COc1cc2[nH]c(C(=O)N3CCC(Cc4ccccc4)CC3)cc2c(OC)c1OC,inactive: -22%,–
COc1ccccc1N=Nc1c(C)noc1C,inactive: 2.15%,–
CCCc1nc(SCc2cccnc2)c2c(=O)n(C)c(=O)n(C)c2n1,–,"inconclusive [inhibitor, partial curve]"
COC(=O)c1ccc(C(=O)N(Cc2ccccc2)c2ccccc2)cc1,–,"inconclusive [inhibitor, partial curve]"
COc1ccc2c(c1)CCC(C)N2C(=O)C(=O)c1c[nH]c2ccccc12 (stereo not given),–,"inconclusive [inhibitor, partial curve, poor fit]"
C(=C\c1ccccc1)/CN1CCN(C(c2cc3ccccc3o2)c2nnnn2C2CCCC2)CC1 (stereo not given),–,"inconclusive [inhibitor, full curve]"
O=C1N/C(=N\S(=O)(=O)Cc2ccccc2)S/C1=C/c1cccc([N+](=O)[O-])c1,–,"inconclusive [inhibitor, partial curve]"
CCN1C(=O)N(CC)c2cccc3cccc1c23,–,"inconclusive [inhibitor, full curve]"
CN1/C(=C\C(=O)c2cccnc2Cl)C(C)(C)c2ccccc21,–,"inconclusive [inhibitor, partial curve]"
CC1(C(=O)NCc2cccc3ccccc23)CCN1CCc1ccccc1 (stereo not given),–,"inconclusive [inhibitor, partial curve]"
N#C/C(=C(/O)CN1CCOCC1)c1nc2ccccc2s1,–,"inconclusive [inhibitor, partial curve, poor fit]"
O=C(CCCc1cccs1)N1CCN(S(=O)(=O)c2ccccc2Br)CC1,inactive: -5.88%,–
O=C(Nc1cccc(Cl)c1N1CCOCC1)c1cccs1,–,"inconclusive [inhibitor, partial curve]"
N#Cc1c(-c2ccccc2)c(-c2ccccc2)nn(CC(=O)NNC(=O)Nc2ccc(Cl)cc2)c1=O,–,"inconclusive [inhibitor, partial curve]"
COc1cc(NC(C)CCCNC(C)C)c2ncccc2c1OC (stereo not given),inactive: -3.35%,–
O=C(Nc1ccc(Nc2ccncc2)cc1)c1ccc(Nc2ccnc3ccc([N+](=O)[O-])cc23)cc1,–,"inconclusive [inhibitor, partial curve, poor fit]"
CCOC(=O)N1CCN(C(=O)CSc2nc(C)nc3c2c(=O)n(C)c(=O)n3C)CC1,inactive: -1.46%,–
CCOC(=O)Cc1nn(Cc2ccc(Cl)cc2)c(=O)c2ccccc12,–,"inconclusive [inhibitor, full curve]"

SMILES,"activity, negative = inhibition",Potency
COc1cccc(C(C(=O)NC2CCCC2)N2CCN(c3cc(C)nc4ccccc34)CC2)c1OC (stereo not given),inactive: 3.12%,–
CN1CCN(C2=C(NS(=O)(=O)c3ccccc3)C(=O)c3ccccc3C2=O)CC1,inactive: -17.4%,–
O=[N+]([O-])c1ccc(Nc2ccccc2O)c([N+](=O)[O-])c1,–,"inconclusive [inhibitor, partial curve]"
O=S(=O)(Nc1cc2nc3ccccc3nc2n1Cc1ccccc1)c1ccc(Cl)cc1,–,"inconclusive [inhibitor, single point]"
O=C1/C(=C/c2ccc(O)c(O)c2)Oc2cc(O)ccc21,inactive: -18.8%,–
COc1ccc(NC(C)C(=O)N/N=C/c2ccccc2OCc2ccc(Br)cc2)cc1 (stereo not given),inactive: -5.46%,–
O=C(Nc1ccccc1Oc1cccnc1)C1CCCN(C/C=C/c2ccc(F)cc2)C1 (stereo not given),inactive: -6.58%,–
CC(C)(C)c1ccc(C(=O)N2CCC(C(=O)N3CCCCC3)CC2)cc1,–,"inconclusive [inhibitor, single point]"
O=C(Nc1cnc2ccccn2c1=O)c1ccc(Cl)cc1,inactive: 9.75%,–
COc1ccc(C)c2sc(N(CCCN(C)C)C(=O)c3ccc(S(=O)(=O)N4CCc5ccccc5C4)cc3)nc12,–,"inconclusive [inhibitor, partial curve]"
COC(=O)Cn1c(C)nc(=O)c(-c2ccccc2)c1C,–,"inconclusive [inhibitor, single point]"
CC12CCC3c4ccc(O)c([N+](=O)[O-])c4CCC3C1CCC2=O (stereo not given),inactive: -4.65%,–
COC(=O)CC1(C(=O)OC)Oc2ccc(Br)cc2C(=O)N1c1cc(Cl)cc(Cl)c1 (stereo not given),–,"inconclusive [inhibitor, full curve, poor fit]"
Cn1nnnc1SCC(=O)NNC(=O)c1ccc(Br)cc1,inactive: 2.81%,–
O=C1C(O)=CC(=C(c2ccccc2)c2ccccc2)c2ccccc21,–,"inconclusive [inhibitor, full curve]"
Cc1cccc(/C=C/C(=O)c2ccc(NC3=NCCCS3)cc2)c1,inactive: -8.32%,–
CCCOc1ccc2c(=O)c(-c3cc(C(=O)OC)oc3C)c(C)oc2c1,inactive: -0.482%,–
COc1ccc(-c2nn(-c3ccccc3)cc2/C=N/n2cnnc2)cc1OC,–,"inconclusive [inhibitor, single point]"
CCOC(=O)N1CCN(Cc2nc3c(c(=O)n(C)c(=O)n3C)n2Cc2ccccc2)CC1,inactive: -1.88%,–
CSc1ccccc1OCc1cc(C(=O)NCCc2ccco2)no1,inactive: 9.38%,–
Cc1cc2ccccn2c1C(=O)c1ccc(Cl)cc1,–,"inconclusive [inhibitor, partial curve]"
CCC(CC)C(=O)N(C)c1c(C)nc2c(OCc3ccc(C#N)cc3)cccn12,–,"inconclusive [inhibitor, single point]"
COc1ccc(-c2ccc(C(=O)NC(C)C)c3occc23)c(C)c1,–,"inconclusive [inhibitor, partial curve]"
Cc1ccc(C(C)C)c(OCC(=O)NN=C2CCCC(=O)C2)c1,–,"inconclusive [inhibitor, single point]"

SMILES,"activity, negative = inhibition",Potency
CCc1cc(C(=O)c2ccc(OC)cc2)c(NC(=O)CN2CCCC2)s1,–,"inconclusive [inhibitor, partial curve]"
CC1=C(C#N)C(=O)NC(=O)/C1=C\c1ccc(-c2cc(C)c(C)cc2[N+](=O)[O-])o1,–,"inconclusive [inhibitor, partial curve]"
CCOC(=O)C1CCCN(C(=O)c2ccc3c(c2)N(C)C(=O)/C(=C/c2ccccc2Cl)S3)C1 (stereo not given),inactive: -8.52%,–
CC[C@@H]1CC=C[C@H]2[C@H]1C(=O)N(Cc1ccccc1)[C@H]2c1ccoc1,inactive: -24.2%,–
CC(=O)C1=C(O)C(=O)N(c2cccc(Br)c2)C1c1ccc(Br)cc1 (stereo not given),–,"inconclusive [inhibitor, partial curve]"
COC(=O)Cn1ncc2c3ccccc3n(C)c2c1=O,inactive: -5.13%,–
CCOc1cccc(NCc2cc3c(C(C)(C)C)nn(-c4ccccc4)c3[nH]c2=O)c1,–,"inconclusive [inhibitor, partial curve]"
COC(=O)c1sccc1NC(=O)c1c(-c2ccccc2)noc1C,–,"inconclusive [inhibitor, single point]"
COc1ccc(-n2c(C)cc(C(=O)CN3C(=O)C(=O)N(Cc4ccccc4)C3=O)c2C)cc1,inactive: 14.6%,–
COc1ccc(N2CCOCC2)c(NC(=O)c2cccc3ccccc23)c1,–,"inconclusive [inhibitor, full curve]"
COC(=O)C1=CN(c2ccc(F)cc2)C(N)=C(C#N)C1c1ccc(-c2ccccc2)cc1 (stereo not given),inactive: -3.17%,–
O=C1OC(Oc2ccc(Br)cc2)(c2ccccc2)c2ccccc21 (stereo not given),–,"inconclusive [inhibitor, full curve, poor fit]"
COC(=O)C1=CN(Cc2ccc(OC)c(OC)c2)C=C(C(=O)OC)C1c1ccc(F)cc1,–,"inconclusive [inhibitor, full curve, poor fit]"
COc1ccc(NC(=O)COc2ccc(/C=N/NC(=O)c3cccnc3)cc2OC)cc1,inactive: 3.15%,–
Clc1ccc(C(Cn2ccnc2)OCc2c(Cl)cccc2Cl)c(Cl)c1 (stereo not given),–,"inconclusive [inhibitor, full curve]"
CCS(=O)(=O)n1nc(-c2ccc(Cl)cc2)nc1SCc1ccccc1,inactive: -13.5%,–
CC(=O)C[C@@H]1OC[C@H](Cc2ccccc2)N1S(=O)(=O)c1ccc(C)cc1,–,"inconclusive [inhibitor, partial curve]"
CC1=C(C(=O)OCc2ccccc2)C(c2ccc(C(C)(C)C)cc2)NC(=O)N1CCCCCC(=O)O (stereo not given),–,active: 15.8 µM
COc1cc(Br)cc(/C=N/c2ncn[nH]2)c1O,–,"inconclusive [inhibitor, full curve, poor fit]"
Nc1c2c(nn1-c1ccccc1)CCC2,–,"inconclusive [inhibitor, single point]"
Cc1ccc(-n2cccn2)c(CN2CCCC(C(=O)c3ccc4c(c3)OCO4)C2)c1 (stereo not given),inactive: -7.01%,–
COC(=O)C1(C(=O)OC)c2ccccc2N(S(=O)(=O)c2ccc(C)cc2)C1CC(=O)c1ccccc1 (stereo not given),inactive: -9.54%,–
